Source: PubChem BioAssay AID1240 (Sanford-Burnham Center for Chemical Genomics, 2008)
Out of some 50,000 compounds screened, about 800 (1.6%) showed an effect of 50% or more. This is one part of the list.

The molecules below were run against Bcl-2-like protein 10 (Homo sapiens) (UniProt Q9HD36) (assay: TR3 peptide-Bcl-B binding displacers, biochemical primary FP assay, phenotype converters (AID 1240;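 also: 0% = Bcl-B with tracer peptide and DMSO and 100% = tracer peptide lacking Bcl-B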)). Conditions: GST-Bcl-B / FITC-TR3 peptide fluorescence polarization; stronger effect = higher value; compound at 3.75 mg/L.
Sequence of UniProt Q9HD36 (Q9HD36 whole entry, looked up): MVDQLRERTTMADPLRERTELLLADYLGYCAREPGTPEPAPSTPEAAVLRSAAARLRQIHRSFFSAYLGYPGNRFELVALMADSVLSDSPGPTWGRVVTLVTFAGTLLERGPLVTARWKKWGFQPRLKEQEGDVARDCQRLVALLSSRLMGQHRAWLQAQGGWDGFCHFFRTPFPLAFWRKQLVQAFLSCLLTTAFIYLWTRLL

| Compound | displacement [%] |
| --- | --- |
| Cc1cc(N2CCC(C)CC2)n2c(nc3ccccc32)c1C#N | 1.8 |
| O=C1/C(=C\Nc2ccccc2O)CCc2ccccc21 | 3.8 |
| N#Cc1c2nc[nH]c(=O)c2c2n1CCC2 | 6.1 |
| CCc1ccccc1N(CC(=O)N1CCCC1)S(C)(=O)=O | -2.5 |
| O=C(O)c1ccc(S(=O)(=O)c2ccc(Sc3ccc(C(=O)O)c(C(=O)O)c3)cc2)cc1 | 2.4 |
| COc1ccc(C(=O)N2CCN(Cc3ccc(OC)c(Br)c3)CC2)cc1 | -7 |
| Cc1cc(C)cc(NC(=O)CN(c2ccc(Oc3ccccc3)cc2)S(C)(=O)=O)c1 | -1.3 |
| COc1ccc(-c2cc(C(F)(F)F)n3ncc(C(=O)NCC4CCCO4)c3n2)cc1 (stereo unspecified) | 0.9 |
| CCOC(=O)C(=Cc1cc(OC)c(OC)cc1Br)C(=O)OCC | 2.6 |
| Cc1ccc(C23CC4CC(CC(C(=O)Nc5cccc(C(=O)O)c5)(C4)C2)C3)cc1 | -4.8 |
| N#CC(C#N)=Cc1cn(-c2ccccc2)nc1-c1ccc(-c2ccc([N+](=O)[O-])cc2)o1 | -5.9 |
| O=C(COc1ccc([N+](=O)[O-])cc1)Nc1ccccc1O | 7.4 |
| COc1cc(CN2CCOCC2)cc(C=O)c1O | -6.2 |
| Cc1ccc(C(=O)CC2(O)C(=O)Nc3ccc(Br)cc32)cc1 (stereo unspecified) | 0.8 |
| O=C(O)CN(Cc1ccccc1)S(=O)(=O)c1ccccc1 | -0.1 |
| CCOC(=O)c1c(NC(=O)/C=C/c2ccc(C)cc2)sc(C)c1C | -2.5 |
| CCCC(=O)Nc1sc2c(c1C(=O)OCC)CCCC2 | 2.6 |
| CC(C)CNc1nc(-c2ccc(Cl)cc2)nc2ccccc12 | -2.5 |
| COc1cc(C(=S)N2CCOCC2)ccc1OCc1ccccc1 | -2.8 |

| Compound | displacement [%] |
| --- | --- |
| COc1cc(C=O)c(Br)c(OC)c1OC | 7.2 |
| O=C(/C=C/NCc1ccccc1)c1ccc(Cl)cc1 | -7.7 |
| O=C1CC(c2ccccc2C(F)(F)F)c2ccccc2N1 (stereo unspecified) | -9 |
| Cc1ccc(N(CC(=O)Nc2ccccc2Cl)S(=O)(=O)c2ccc(F)cc2)cc1 | 11.2 |
| N#CC1=C(N)Oc2cc(O)ccc2C1C1CC=CCC1 (stereo unspecified) | 17.5 |
| NS(=O)(=O)c1ccc(CNC(=O)c2ccccc2Br)cc1 | 9 |
| O=C(NCC1CCCO1)Nc1cccc(Cl)c1 (stereo unspecified) | 10.4 |
| O=C1C2C(C(=O)N1/N=C/c1cccc(Cl)c1)C1C=CC2C12CC2 (stereo unspecified) | -6.1 |
| COc1cccc(C(=O)Nc2sc3c(c2C#N)CC(C)(C)OC3)c1 | -3.5 |
| COc1cc(/C=C2\C=C(c3ccc(C)cc3)OC2=O)ccc1OC(C)=O | 59.2 |
| O=C1NCCN/C1=C\C(=O)c1ccc(F)cc1 | -4.5 |
| CCOc1cc(/C=C2/C(=O)NC(=O)N(c3ccccc3)C2=O)cc(Br)c1O | 14.7 |
| COc1cc(OC)c(OC)cc1CN1CCN(S(C)(=O)=O)CC1 | 10.5 |
| O=C(N=Nc1c(O)n(Cc2ccccc2)c2ccccc12)c1ccccc1[N+](=O)[O-] | 1.9 |
| COC(=O)CCN(C(=O)c1ccc(F)cc1)c1ccccn1 | -12 |
| COCCOC(=O)c1ccc(NC(=O)C(C)Oc2ccc(Cl)cc2C)cc1 (stereo unspecified) | -17.3 |
| COc1ccccc1NC(=O)c1ccc(CN(c2ccc(C)c(C)c2)S(C)(=O)=O)cc1 | 4.5 |
| O=C1OC(c2ccccc2)=N/C1=C/c1c(F)c(F)c(F)c(F)c1F | -3.5 |
| O=C(O)CSc1ccc(I)cc1C(=O)O | -5.7 |

| Compound | displacement [%] |
| --- | --- |
| O=c1oc(-c2ccccc2Cl)nc2c1cnn2-c1ccccc1 | 3.1 |
| COc1cccc(/C=C2\SC(N3CCCC3)=NC2=O)c1 | -2.9 |
| COc1cccc(C2NC(=O)NC(C)=C2C(=O)OCCSC)c1OC (stereo unspecified) | 8.4 |
| O=C(/C=C(\O)c1ccc2c(c1)OCO2)C(F)(F)F | -7 |
| CCOC(=O)C1=C(C)NC(=O)CC1c1ccccc1I (stereo unspecified) | -10.7 |
| Cc1ccc(C(=O)N/C(=C\c2cccc([N+](=O)[O-])c2)C(=O)NCc2ccncc2)cc1 | 9.4 |
| O=C(/C=C/c1ccccc1Cl)Nc1ccc(Cl)cn1 | 5.9 |
| O=C(/C=C/c1cccc(C(F)(F)F)c1)Nc1cccc(C(F)(F)F)c1 | 12.8 |
| CCn1c2ccccc2c2cc(/C=N\NC(=O)c3cccc(C)c3)ccc21 | 23.8 |
| O=C(O)c1cc(NC(=O)c2ccco2)cc(C(=O)O)c1 | 9 |
| CN(C)/C=C1/CCc2c([nH]c3ccccc23)C1=O | 9.1 |
| Cc1cccc(C)c1OCC(O)CN1CCC(C)CC1 (stereo unspecified) | 15.9 |
| CC(Nc1n[nH]c(=O)[nH]c1=O)C(=O)N/N=C/c1ccccc1Br (stereo unspecified) | -12.3 |
| Cc1cc(C(=O)Nc2ccc3ncccc3c2)ccc1[N+](=O)[O-] | -4.1 |
| Cc1ccc(OCCCCN2CCCCC2)c(Cl)c1 | 3.8 |
| O=C(O)CCC(=O)N1N=C(c2cccs2)CC1c1ccccc1Cl (stereo unspecified) | -8.4 |
| CCc1nn2c(C)c(C)c(C)nc2c1C | -2.3 |
| O=c1n(-c2ccccc2)c(=O)n2n1C1c3ccccc3C2c2ccccc21 | 3.9 |
